Experimental data reported in the supplement of paper PMC11741623.
The other results are listed elsewhere or left out. Interaction screen of human proteins with wild-type SARS-CoV-2 proteins by split-DHFR complementation in yeast, 1 µg/mL methotrexate. Value = fitness of the pair (three or more lineages) minus that of the viral protein without a human partner, on a scale set by negative (0) and fused positive (1) controls, mean of up to three cultures; higher = more likely to interact. Active = false discovery rate below 0.05 (one-sided t-test) in at least one culture. Nearly all pairs are not hits, and differences among them are mostly noise (correlation between cultures about 0.3); most hits were seen in one culture only. Human sequences are the Swiss-Prot entries looked up by gene name; the clone may be another isoform. NSP2 values were corrected by the authors for a growth advantage. Listed are human proteins with a hit and a random twelfth of the others.

B1: INIP, Q9NRY2 (protein)
chain: MAANSSGQGFQNKNRVAILAELDKEKRKLLMQNQSSTNHPGASIALSRPSLNKDFRDHAEQQHIAAQQKAALQHAHAHSSGYFITQDSAFGNLILPVLPRLDPE
B2: CA6, P23280 (protein)
chain: MRALVLLLSLFLLGGQAQHVSDWTYSEGALDEAHWPQHYPACGGQRQSPINLQRTKVRYNPSLKGLNMTGYETQAGEFPMVNNGHTVQISLPSTMRMTVADGTVYIAQQMHFHWGGASSEISGSEHTVDGIRHVIEIHIVHYNSKYKSYDIAQDAPDGLAVLAAFVEVKNYPENTYYSNFISHLANIKYPGQRTTLTGLDVQDMLPRNLQHYYTYHGSLTTPPCTENVHWFVLADFVKLSRTQVWKLENSLLDHRNKTIHNDYRRTQPLNHRVVESNFPNQEYTLGSEFQFYLHKIEEILDYLRRALN
B3: IGIP, A6NJ69 (protein)
chain: MCSYYHMKKRSVSGCNITIFAVMFSHLSAGKSPCGNQANVLCISRLEFVQYQS
B4: CRH, P06850 (protein)
chain: MRLPLLVSAGVLLVALLPCPPCRALLSRGPVPGARQAPQHPQPLDFFQPPPQSEQPQQPQARPVLLRMGEEYFLRLGNLNKSPAAPLSPASSLLAGGSGSRPSPEQATANFFRVLLQQLLLPRRSLDSPAALAERGARNALGGHQEAPERERRSEEPPISLDLTFHLLREVLEMARAEQLAQQAHSNRKLMEIIGK

These binders were tested against SARS-CoV-2 E (assay: yeast fitness gain over the viral ORF with no human partner (scaled fitness); higher = more likely to interact).
Procedure: (§1)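 Split mouse DHFR complementation in pooled diploid yeast: human ORFeome clones carry one fragment and viral ORFs the other; barcoded lineages compete in 1 µg/mL methotrexate and fitness is read by barcode sequencing in up to three cultures.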
B1 was tested, and the yeast fitness gain was inactive: -0.0432. For B2, the yeast fitness gain was inactive: -0.105. For B3, the yeast fitness gain was inactive: -0.0661. For B4, the yeast fitness gain was inactive: -0.0924.

The binders below were run against SARS-CoV-2 M in the same assay as above.
Procedure: as §1
With B1 the yeast fitness gain was inactive: -0.105. For B2, the yeast fitness gain was inactive: 0.0109. B3 was tested, and the yeast fitness gain was inactive: 0.0469. With B4 the yeast fitness gain was inactive: 0.0192.

Each binder was assayed against SARS-CoV-2 N in the same assay as above.
Procedure: as §1
B1 was tested, and the yeast fitness gain was inactive: 0.0429. B2 was tested, and the yeast fitness gain was inactive: 0.013. For B3, the yeast fitness gain was inactive: -0.0127. B4 was tested, and the yeast fitness gain was inactive: -0.0859.

The binders below were run against SARS-CoV-2 NSP1 in the same assay as above.
Procedure: as §1
For B1, the yeast fitness gain was inactive: -0.156. In the case of B2, the yeast fitness gain is reported as inactive: -0.00848. In the case of B3, the yeast fitness gain is reported as inactive: 0.0191. In the case of B4, the yeast fitness gain is reported as inactive: -0.0238.

These binders were tested against SARS-CoV-2 NSP10 in the same assay as above.
Procedure: as §1
B1 was tested, and the yeast fitness gain was inactive: -0.0553. For B2, the yeast fitness gain was inactive: 0.0453. B3 was tested, and the yeast fitness gain was inactive: 0.0347. In the case of B4, the yeast fitness gain is reported as inactive: 0.00484.

What follows are binders tested against SARS-CoV-2 NSP12 in the same assay as above.
Procedure: as §1
In the case of B1, the yeast fitness gain is reported as inactive: 0.025. In the case of B2, the yeast fitness gain is reported as inactive: -0.0282. In the case of B3, the yeast fitness gain is reported as inactive: 0.0574. With B4 the yeast fitness gain was inactive: -0.00331.

These binders were tested against SARS-CoV-2 NSP13 in the same assay as above.
Procedure: as §1
For B1, the yeast fitness gain was inactive: 0.0592. With B2 the yeast fitness gain was inactive: 0.0145. B3 was tested, and the yeast fitness gain was inactive: -0.0116. B4 was tested, and the yeast fitness gain was inactive: -0.00145.

The binders below were run against SARS-CoV-2 NSP14 in the same assay as above.
Procedure: as §1
In the case of B1, the yeast fitness gain is reported as inactive: 0.12. B3 was tested, and the yeast fitness gain was inactive: 0.0402. With B4 the yeast fitness gain was inactive: -0.165.

The binders below were run against SARS-CoV-2 NSP15 in the same assay as above.
Procedure: as §1
With B1 the yeast fitness gain was inactive: 0.0244. B2 was tested, and the yeast fitness gain was inactive: -0.0335. With B3 the yeast fitness gain was inactive: -0.0797. With B4 the yeast fitness gain was inactive: 0.0135.

These binders were tested against SARS-CoV-2 NSP16 in the same assay as above.
Procedure: as §1
B1 was tested, and the yeast fitness gain was inactive: 0.0439. In the case of B2, the yeast fitness gain is reported as inactive: -0.0773. With B3 the yeast fitness gain was inactive: -0.0885. B4 was tested, and the yeast fitness gain was inactive: -0.0207.

The binders below were run against SARS-CoV-2 NSP2 in the same assay as above.
Procedure: as §1
With B1 the yeast fitness gain was inactive: -0.0339. In the case of B2, the yeast fitness gain is reported as inactive: -0.108. For B3, the yeast fitness gain was inactive: -0.165. In the case of B4, the yeast fitness gain is reported as inactive: -0.161.

What follows are binders tested against SARS-CoV-2 NSP4 in the same assay as above.
Procedure: as §1
With B1 the yeast fitness gain was inactive: 0.106. With B2 the yeast fitness gain was inactive: -0.204.

Each binder was assayed against SARS-CoV-2 NSP5 in the same assay as above.
Procedure: as §1
In the case of B1, the yeast fitness gain is reported as inactive: 0.00332. B2 was tested, and the yeast fitness gain was inactive: 0.0107. With B3 the yeast fitness gain was inactive: -0.0712. With B4 the yeast fitness gain was inactive: 0.0257.

What follows are binders tested against SARS-CoV-2 NSP6 in the same assay as above.
Procedure: as §1
With B1 the yeast fitness gain was inactive: 0.0567. In the case of B2, the yeast fitness gain is reported as inactive: -0.048. With B3 the yeast fitness gain was inactive: 0.0185. In the case of B4, the yeast fitness gain is reported as inactive: -0.0319.

The binders below were run against SARS-CoV-2 NSP7 in the same assay as above.
Procedure: as §1
For B1, the yeast fitness gain was inactive: 0.0171. B2 was tested, and the yeast fitness gain was inactive: 0.0408. B3 was tested, and the yeast fitness gain was inactive: 0.171. B4 was tested, and the yeast fitness gain was inactive: 0.0675.

These binders were tested against SARS-CoV-2 NSP8 in the same assay as above.
Procedure: as §1
With B1 the yeast fitness gain was inactive: -0.0525. In the case of B2, the yeast fitness gain is reported as inactive: 0.00277. With B3 the yeast fitness gain was inactive: -0.0468. For B4, the yeast fitness gain was inactive: 0.0742.

The binders below were run against SARS-CoV-2 NSP9 in the same assay as above.
Procedure: as §1
With B1 the yeast fitness gain was inactive: 0.0712. With B2 the yeast fitness gain was inactive: -0.062. With B3 the yeast fitness gain was inactive: -0.0507. In the case of B4, the yeast fitness gain is reported as inactive: -0.0545.

These binders were tested against SARS-CoV-2 ORF10 in the same assay as above.
Procedure: as §1
B1 was tested, and the yeast fitness gain was inactive: -0.0151. In the case of B2, the yeast fitness gain is reported as inactive: 0.0189. B3 was tested, and the yeast fitness gain was inactive: 0.0493. With B4 the yeast fitness gain was inactive: -0.0167.

The binders below were run against SARS-CoV-2 ORF3A in the same assay as above.
Procedure: as §1
B1 was tested, and the yeast fitness gain was inactive: 0.111. B2 was tested, and the yeast fitness gain was inactive: -0.00799. In the case of B4, the yeast fitness gain is reported as inactive: 0.0182.

The binders below were run against SARS-CoV-2 ORF3B in the same assay as above.
Procedure: as §1
In the case of B1, the yeast fitness gain is reported as inactive: -0.0055. For B2, the yeast fitness gain was inactive: 0.029. For B3, the yeast fitness gain was inactive: -0.0611. With B4 the yeast fitness gain was inactive: -0.0746.

Each binder was assayed against SARS-CoV-2 ORF6 in the same assay as above.
Procedure: as §1
For B1, the yeast fitness gain was inactive: 0.00262. With B2 the yeast fitness gain was inactive: -0.0355. With B3 the yeast fitness gain was inactive: 0.0478. B4 was tested, and the yeast fitness gain was inactive: 0.0165.

Each binder was assayed against SARS-CoV-2 ORF7A in the same assay as above.
Procedure: as §1
With B1 the yeast fitness gain was inactive: -0.0678. With B2 the yeast fitness gain was inactive: -0.0514. With B3 the yeast fitness gain was inactive: 0.0252. With B4 the yeast fitness gain was inactive: 0.076.

What follows are binders tested against SARS-CoV-2 ORF7B in the same assay as above.
Procedure: as §1
For B1, the yeast fitness gain was inactive: -0.0384. In the case of B2, the yeast fitness gain is reported as inactive: 0.101. For B3, the yeast fitness gain was inactive: -0.00203. For B4, the yeast fitness gain was inactive: -0.101.

What follows are binders tested against SARS-CoV-2 ORF8 in the same assay as above.
Procedure: as §1
In the case of B1, the yeast fitness gain is reported as inactive: 0.102. For B2, the yeast fitness gain was inactive: 0.0666. B3 was tested, and the yeast fitness gain was inactive: 0.054. B4 was tested, and the yeast fitness gain was inactive: -0.000435.

These binders were tested against SARS-CoV-2 ORF9B in the same assay as above.
Procedure: as §1
In the case of B1, the yeast fitness gain is reported as inactive: 0.00954. B2 was tested, and the yeast fitness gain was inactive: 0.024. In the case of B3, the yeast fitness gain is reported as inactive: -0.0215. With B4 the yeast fitness gain was inactive: -0.0229.

The binders below were run against SARS-CoV-2 ORF9Bwu (the 73-codon ORF) in the same assay as above.
Procedure: as §1
With B1 the yeast fitness gain was inactive: 0.0245. B2 was tested, and the yeast fitness gain was inactive: -0.0673. With B3 the yeast fitness gain was inactive: -0.0288. In the case of B4, the yeast fitness gain is reported as inactive: -0.162.

These binders were tested against SARS-CoV-2 S in the same assay as above.
Procedure: as §1
With B1 the yeast fitness gain was inactive: 0.0376. B2 was tested, and the yeast fitness gain was inactive: 0.0311. B3 was tested, and the yeast fitness gain was inactive: 0.0716. B4 was tested, and the yeast fitness gain was inactive: 0.0105.
